Data from the antibiotic and cytotoxicity screens of Wong et al. (2023).
The list shows a part of the results.

How the values were obtained:
HSkMC = human skeletal muscle cells; assay: cytotoxicity call (relative viability < 0.9); details: 10 µM
HepG2 = assay: cytotoxicity call (relative viability < 0.9); details: 10 µM
S. aureus RN4220 = assay: growth inhibition call (relative growth <= 0.2); details: 50 µM

Compound	cytotoxicity call (HSkMC)	cytotoxicity call (HepG2)	growth inhibition call (S. aureus RN4220)
CN(C)CCCC1(c2ccc(F)cc2)OCc2cc(C#N)ccc21.O=C(O)C(=O)O (stereo not given)	inactive	inactive	inactive
COc1ccc(NC(=O)N(C)C[C@@H]2Oc3ccc(NS(C)(=O)=O)cc3CC(=O)N([C@H](C)CO)C[C@@H]2C)cc1	inactive	inactive	inactive
C[C@H](CO)N1C[C@H](C)[C@H](CN(C)S(=O)(=O)c2ccc(F)cc2)Oc2ncc(-c3ccncc3)cc2C1=O	inactive	inactive	inactive
CCCN(C)C[C@@H]1OCCCC[C@H](C)Oc2ccc(NC(=O)CCC(F)(F)F)cc2C(=O)N([C@@H](C)CO)C[C@@H]1C	inactive	inactive	inactive
C[C@@H]1CN([C@H](C)CO)C(=O)c2cccc(NC(=O)C3CCOCC3)c2O[C@@H]1CN(C)Cc1ccc(C(=O)O)cc1	inactive	inactive	inactive
CN1CCN([C@@H]2CCN[C@H]2Cc2cnn(C)c2)CC1	inactive	inactive	inactive
CC(C)NC(=O)N(C)C[C@@H]1Oc2ccc(NC(=O)C3CCCCC3)cc2C(=O)N([C@H](C)CO)C[C@H]1C	inactive	inactive	inactive
C[C@@H]1CN([C@H](C)CO)C(=O)c2cccc(NC(=O)Nc3ccc(F)cc3)c2O[C@@H]1CN(C)Cc1ccc(C(F)(F)F)cc1	inactive	inactive	inactive
C[C@@H]1CCCCO[C@H](CN(C)CC2CCCCC2)[C@@H](C)CN([C@@H](C)CO)C(=O)c2cc(NS(=O)(=O)c3cccs3)ccc2O1	inactive	inactive	inactive
C[C@@H]1CN([C@@H](C)CO)C(=O)c2cc(N(C)C)ccc2O[C@@H](C)CCCCO[C@H]1CN(C)C(=O)CCCN(C)C	inactive	inactive	inactive
C[C@H](CO)N1C[C@H](C)[C@@H](CN(C)S(=O)(=O)c2ccc(Cl)cc2)Oc2ccc(NC(=O)C3CC3)cc2C1=O	inactive	inactive	inactive
COCC(=O)N(C)C[C@H]1Oc2cc(C#CCC3CCCC3)ccc2S(=O)(=O)N([C@@H](C)CO)C[C@@H]1C	inactive	inactive	inactive
C[C@H]1CN([C@@H](C)CO)S(=O)(=O)c2ccc(Br)cc2O[C@@H]1CN(C)Cc1cccc(F)c1	inactive	inactive	inactive
CC(=O)N(C)C[C@H]1Oc2ncc(C#C[C@@H](C)O)cc2C(=O)N([C@H](C)CO)C[C@H]1C	inactive	inactive	inactive
CCCCCCCC/C=C\C/C=C\C/C=C\CCCC(=O)O	inactive	inactive	inactive
C[C@@H]1CN([C@H](C)CO)C(=O)c2cc(NC(=O)c3ccncc3)ccc2O[C@@H]1CN(C)Cc1ccc2c(c1)OCO2	inactive	inactive	inactive
COc1ccc(CN(C)C[C@H]2Oc3ccc(NC(=O)Nc4ccc(C(F)(F)F)cc4)cc3CC(=O)N([C@@H](C)CO)C[C@@H]2C)cc1	inactive	active	inactive
Cn1c(=O)c2[nH]c(Br)nc2n(C)c1=O	inactive	inactive	inactive
Cc1ccc(S(=O)(=O)Nc2ccc3c(c2)C(=O)N([C@H](C)CO)C[C@H](C)[C@H](CN(C)Cc2ccc(Cl)c(Cl)c2)OCCCC[C@H](C)O3)cc1	inactive	inactive	inactive
C[C@@H]1CCCCO[C@@H](CN(C)S(=O)(=O)c2cn(C)cn2)[C@H](C)CN([C@H](C)CO)C(=O)c2cc(NS(=O)(=O)c3cn(C)cn3)ccc2O1	inactive	inactive	inactive
Cc1noc(C)c1NC(=O)N(C)C[C@@H]1Oc2ccc(NS(=O)(=O)c3c(C)noc3C)cc2C(=O)N([C@H](C)CO)C[C@@H]1C	inactive	inactive	inactive
Cc1ccc(S(=O)(=O)N(C)C[C@H]2Oc3ccc(NC(=O)Nc4cccc5ccccc45)cc3C(=O)N([C@H](C)CO)C[C@@H]2C)cc1	inactive	inactive	inactive
NCCC1=CSC2=NCCN12	inactive	inactive	inactive
C[C@H]1CN([C@@H](C)CO)C(=O)c2cc(-c3ccc(C(=O)N(C)C)cc3)cnc2O[C@@H]1CN(C)C(=O)CN(C)C	inactive	inactive	inactive
C=CCOC(=O)[C@@H]1[C@H]2C(=O)O[C@H](c3ccccc3)[C@H](c3ccccc3)N2[C@H](c2ccc(OCCOC(=O)[C@H]3C[C@H]4C(=O)N[C@@H](CCCCNC(C)=O)C(=O)N4[C@H]3c3ccc(O)cc3)cc2)[C@@]12C(=O)Nc1ccc(I)cc12	inactive	inactive	inactive
CO[C@@H]1CN(C)C(=O)c2ccc(NS(=O)(=O)CC(F)(F)F)cc2OC[C@H](C)N(C(=O)NC(C)C)C[C@@H]1C	inactive	inactive	inactive
COc1ccc(CN(C)C[C@@H]2OCCCC[C@H](C)Oc3ccc(NC(=O)Nc4cccc5ccccc45)cc3C(=O)N([C@H](C)CO)C[C@H]2C)cc1	active	active	inactive
C[C@@H]1CCCCO[C@H](CN(C)C(=O)Nc2ccc(C(F)(F)F)cc2)[C@H](C)CN([C@H](C)CO)C(=O)c2cc(NC(=O)Nc3cccc4ccccc34)ccc2O1	inactive	inactive	inactive

Compound	cytotoxicity call (HSkMC)	cytotoxicity call (HepG2)	growth inhibition call (S. aureus RN4220)
CC[C@@H](C)c1ccc(NC(=O)c2ccc(N(CC)CC)cc2)cc1	inactive	inactive	inactive
O=C(O)CCCN1C(=O)c2cccc3cccc(c23)C1=O	inactive	inactive	inactive
C[C@@H]1CN([C@@H](C)CO)C(=O)Cc2cc(NC(=O)CCCCCC(=O)Nc3ccccc3N)ccc2O[C@@H]1CN(C)C(=O)Nc1ccccc1	inactive	inactive	inactive
N#C[C@H]1[C@H](c2ccc(C#Cc3ccccn3)cc2)[C@@H](CO)N1C(=O)CN1CCOCC1	inactive	inactive	inactive
C[C@H]1CN([C@@H](C)CO)C(=O)c2cc(C#Cc3cccnc3)cnc2O[C@@H]1CN(C)S(=O)(=O)c1ccccc1F	inactive	inactive	inactive
Cc1ccc(S(=O)(=O)N(C)C[C@@H]2OCCCC[C@H](C)Oc3ccc(NC(=O)Nc4ccc5c(c4)OCO5)cc3C(=O)N([C@H](C)CO)C[C@@H]2C)cc1	inactive	inactive	inactive
NNC(=O)c1nnn(-c2nonc2N)c1CN1CCCCC1	inactive	inactive	inactive
CC(C)NC(=O)Nc1ccc2c(c1)C(=O)N([C@@H](C)CO)C[C@@H](C)[C@@H](CN(C)S(=O)(=O)c1cn(C)cn1)O2	inactive	inactive	inactive
COc1cccc(S(=O)(=O)N(C)C[C@@H]2Oc3ncc(-c4ccccc4)cc3C(=O)N([C@H](C)CO)C[C@@H]2C)c1	inactive	inactive	inactive
C[C@@H]1CN([C@@H](C)CO)C(=O)c2cc(C#CC3(O)CCCC3)cnc2O[C@H]1CN(C)S(=O)(=O)c1ccccc1	inactive	inactive	inactive
COc1c(C)cccc1C(=O)N1CC[C@H](c2nn(CCN)c3ncccc23)C1	inactive	inactive	inactive
COc1ccc(S(=O)(=O)N(C)C[C@H]2OCCCC[C@@H](C)Oc3ccc(NS(=O)(=O)c4cn(C)cn4)cc3C(=O)N([C@H](C)CO)C[C@@H]2C)cc1	inactive	inactive	inactive
Cc1noc(C)c1S(=O)(=O)Nc1ccc2c(c1)C(=O)N([C@H](C)CO)C[C@@H](C)[C@@H](CN(C)S(=O)(=O)c1ccc(F)cc1)O2	inactive	inactive	inactive
C[C@H]1CN([C@@H](C)CO)C(=O)c2cccc(NS(=O)(=O)c3ccc(Cl)cc3)c2O[C@H]1CN(C)Cc1ccc(C(F)(F)F)cc1	inactive	inactive	inactive
C[C@@H]1CN([C@@H](C)CO)C(=O)c2cc(-c3cccnc3)cnc2O[C@H]1CN(C)Cc1ccc(-c2ccccc2)cc1	inactive	inactive	inactive
CC(=O)N(C)C[C@H]1Oc2cc(C#CCN(C)C)ccc2S(=O)(=O)N([C@@H](C)CO)C[C@H]1C	inactive	inactive	inactive
CC1=CC(C)(C)N(C(=O)/C=C/c2ccccc2)c2ccc(C)cc21	inactive	inactive	inactive
Cc1noc(C)c1S(=O)(=O)N(C)C[C@@H]1OCc2cnnn2CCCC(=O)N([C@@H](C)CO)C[C@@H]1C	inactive	inactive	inactive
COc1ccccc1S(=O)(=O)N(C)C[C@H]1Oc2cc(C#CCC(C)C)ccc2S(=O)(=O)N([C@H](C)CO)C[C@@H]1C	inactive	inactive	inactive
Cc1noc(C)c1NC(=O)Nc1ccc2c(c1)CC(=O)N([C@@H](C)CO)C[C@@H](C)[C@H](CN(C)C(=O)Nc1cccc3ccccc13)O2	inactive	active	inactive
O=C(O)c1ccc(N2CCCS2(=O)=O)cc1	inactive	inactive	inactive
COc1ccc(S(=O)(=O)N(C)C[C@@H]2Oc3c(NC(=O)c4cc(C)nn4C)cccc3C(=O)N([C@@H](C)CO)C[C@@H]2C)cc1	inactive	inactive	inactive
C[C@@H]1CN([C@H](C)CO)C(=O)Cc2cc(NS(=O)(=O)c3ccc(F)cc3)ccc2O[C@@H]1CN(C)Cc1ccncc1	inactive	inactive	inactive
O=C1CCC(C(=O)N2CCN(CC3CC3)[C@@H]3CS(=O)(=O)C[C@@H]32)=NN1	inactive	inactive	inactive
O=C(C[C@@H]1C=C[C@H](NC(=O)C2CC2)[C@@H](CO)O1)NCCCN1CCOCC1	inactive	inactive	inactive
COC(=O)[C@H](Cc1ccc(-n2cc(-c3cccc(/C=C/C(=O)NO)c3)nn2)cc1)N1CC2=C[C@H]([C@@H](O)Cc3ccccc3)n3c(=O)n(C)c(=O)n3[C@@H]2[C@@H](C2CC2)O1	inactive	active	inactive
O=C(C[C@H]1CC[C@@H]2[C@H](COC[C@H](O)CN2S(=O)(=O)c2ccc(Cl)cc2)O1)NCC1CCCCC1	inactive	inactive	active
